Measured values from PubChem BioAssay AID2546 (National Center for Advancing Translational Sciences (NCATS), 2010).
About 11,000 (3.5%) of roughly 310,000 compounds were called active. Inconclusive means that the source gave no clear call. Such entries were picked first, then a sample of the others. The call rests on the fitted dose curve; in most records, active means well fitted inhibition curve with a large enough effect; inconclusive means small, poorly fitted or top-dose-only effect, or effect the other way; inactive means flat fitted curve, though single readings scatter. Potencies of inconclusive entries are left out as doubtful fits.

Test: VP16 counterscreen qHTS for inhibitors of ROR gamma transcriptional activity;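 further: Gal4-VP16 expression switched on by copper sulfate through the metallothionein promoter; nearly all actives have a fitted effect of over 50% in size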
Details: Drosophila S2 Gal4-VP16 UAS-luciferase, luminescence, 20 h; activity, negative = inhibition: at 53.6 µM (top of the series)
On the % scale 0 is the no-effect control and ±100 the full control effect; potency means the concentration at half of the fitted maximal effect; tags describe the fitted curve by direction and shape.

Q: Which Potency does the source give for CC(=O)Nc1ccc(N=NN2CCOCC2)cc1 here?
A: inconclusive [activator, single point]

Q: Which Potency does the source give for O=C(NC(=S)NC1CCCCC1)c1ccc(F)cc1 here?
A: active: 4.47 µM

Q: Which Potency does the source give for O=C(NC1CCCCC1)C(c1cccs1)N(CCCN1CCOCC1)C(=O)c1ccc(-c2ccccc2)[nH]1 (configuration not stated) here?
A: inconclusive [inhibitor, partial curve, poor fit]

Q: Which Potency does the source give for Cc1cccc(NC(=S)/N=C(\N)Nc2nc(C)c3cc(C)ccc3n2)c1 here?
A: active: 4.47 µM

Q: Which Potency does the source give for Cc1ccc(-c2n[nH]c(=S)n2C)cc1Cl here?
A: active: 3.55 µM

Q: Which Potency does the source give for CSc1ccccc1OCc1cc(C(=O)NCc2cccc(C)n2)no1 here?
A: inconclusive [inhibitor, full curve]

Q: Which Potency does the source give for O=C(N/N=C/c1ccc(-c2cccc([N+](=O)[O-])c2)o1)c1cccs1 here?
A: inconclusive [inhibitor, single point]

Q: Which Potency does the source give for COc1cccc(/C=N/Nc2ccc([N+](=O)[O-])cc2)c1O here?
A: inactive

Q: For COc1ccccc1NC(=S)Nc1ccccn1, which Potency is on record?
A: active: 3.55 µM

Q: Which Potency does the source give for O=C(NCc1nnc(SCc2ccc(F)cc2)n1-c1ccccc1)C12CC3CC(CC(C3)C1)C2 here?
A: inconclusive [inhibitor, single point]

Q: Which Potency does the source give for CNS(=O)(=O)c1cccc(C(=O)OCC(=O)Nc2ccc(N3CCCCC3)cc2)c1 here?
A: inactive

Q: Which Potency does the source give for CC1=NNC(=O)c2ccccc2O1 here?
A: inconclusive [inhibitor, single point]

Q: Which Potency does the source give for C(=N\Nc1ncnc2sc3c(c12)CCC3)/c1ccncc1 here?
A: active: 20 µM

Q: Which Potency does the source give for O=C(CSc1nnc(-c2ccco2)o1)c1ccc(F)c(F)c1 here?
A: inconclusive [inhibitor, single point]

Q: For O=c1c2ccccc2nnn1CCO, which Potency is on record?
A: inactive

Q: With O=C(N/N=C/C=C/c1ccccc1)C1CC1(c1ccccc1)c1ccccc1 (configuration not stated) as the compound, how does the Potency read?
A: inconclusive [inhibitor, single point]

Q: Which Potency does the source give for O=C(Cn1nc(CNc2ccc(Cl)cc2)[n+]2c1CCCCC2)c1ccc(Br)cc1 here?
A: inconclusive [inhibitor, single point]

Q: For Cc1ccc(-c2nn(CCC(=O)O)cc2/C=C\C(=O)c2ccc(Br)cc2)cc1, which activity, negative = inhibition is on record?
A: inactive: 19% [at 10 µM]

Q: For CCC(=O)N(CCC(c1ccco1)c1ccccc1OC)Cc1cccs1 (configuration not stated), which Potency is on record?
A: inconclusive [inhibitor, single point]

Q: For O=C(/C(N=Nc1cccc(C(F)(F)F)c1)=C(/O)c1cccs1)C(F)(F)F, which Potency is on record?
A: inconclusive [inhibitor, single point]

Q: Which Potency does the source give for CCOC(=O)Cc1csc(SCC(=O)Nc2cccc(Cl)c2)n1 here?
A: inactive

Q: With CCn1c(C)nc2cc(C(=O)NNC(=O)CCC3CCCC3)ccc21 as the compound, how does the Potency read?
A: inconclusive [inhibitor, single point]

Q: With COc1cccc2c(Cl)c(CCCl)c(C)nc12 as the compound, how does the Potency read?
A: inconclusive [activator, single point]

Q: For COc1cc(NC(=S)Nc2ccccn2)cc(OC)c1, which Potency is on record?
A: active: 5.62 µM

Q: For CCOCCCNC(=S)N(Cc1ccccc1)Cc1nc2ccccc2c(=O)[nH]1, which Potency is on record?
A: inconclusive [inhibitor, single point]

Q: Which Potency does the source give for Cn1nnc(NC(=S)NC(=O)Cc2ccccc2)n1 here?
A: active: 11.2 µM

Q: With N/C(Cc1ccc([N+](=O)[O-])cc1)=N\OC(=O)c1ccc2ccccc2c1 as the compound, how does the Potency read?
A: inactive

Q: With N=C1C(c2nc3ccccc3[nH]2)=C(O)CN1NC(=O)COc1cccc(F)c1 as the compound, how does the Potency read?
A: inactive

Q: Which Potency does the source give for COC(=O)Cc1cc(=O)[nH]c(Nc2nc3ccccc3o2)n1 here?
A: inconclusive [inhibitor, single point]

Q: For O=C(Nc1ccccc1F)c1coc(=O)c(Br)c1, which Potency is on record?
A: inconclusive [activator, single point]

Q: For O=S(=O)(c1ccsc1)N1CC=C(c2ccccc2)CC1, which Potency is on record?
A: inactive

Q: With COc1ccc(C(=O)CSc2nnc(CNc3ccc(C)cc3C)n2Cc2ccco2)cc1 as the compound, how does the Potency read?
A: inactive

Q: Which Potency does the source give for O=S(=O)(Nc1cc(Sc2ncn[nH]2)c(O)c2ccccc12)c1ccccc1 here?
A: active: 7.08 µM

Q: For CCC(C)c1ccc(NC(=O)c2ccco2)cc1 (configuration not stated), which Potency is on record?
A: active: 7.94 µM

Q: Which Potency does the source give for CN(C)CCc1cc2c(c3c1ccc1ccccc13)OCO2 here?
A: inconclusive [inhibitor, single point]

Q: Which Potency does the source give for COc1ccc(SCC(CC(C)C)N2CCN(CCc3ccccc3)CCC2=O)cc1 (configuration not stated) here?
A: inconclusive [inhibitor, single point]

Q: With COc1cccc(NC(=O)[C@H](C)NC(=O)N2CCn3c2nc2ccccc23)c1 as the compound, how does the Potency read?
A: inconclusive [inhibitor, single point]

Q: For C/C(CC(=O)Nc1ccc([N+](=O)[O-])cc1)=N\NC(=O)c1ccccc1O, which Potency is on record?
A: active: 15.8 µM

Q: With CN(C)c1ccc(CNc2ccc3c(c2)ncn3C(C)(C)C)cc1 as the compound, how does the Potency read?
A: inactive

Q: Which Potency does the source give for Cn1c(=O)c([N+](=O)[O-])c(NCCc2ccccc2)c2ccccc21 here?
A: inactive

Q: With CCOc1ccccc1CNC(=O)Cn1ccc2cc(S(=O)(=O)N3CCCCCC3)ccc21 as the compound, how does the Potency read?
A: inconclusive [inhibitor, single point]

Q: With C=C(C)CSc1nnc(-c2cccc(Cl)c2)n1N as the compound, how does the Potency read?
A: inactive

Q: For COc1ccc(CN2CCC(C(=O)c3cccc(Cl)c3)CC2)cc1, which Potency is on record?
A: inactive

Q: With CCCNc1nc(Nc2ccc(C)cc2)nc(N2CCCC2)n1 as the compound, how does the Potency read?
A: inconclusive [inhibitor, single point]

Q: With CC1Oc2ccccc2C=C1/C=N/Nc1ccc(C(=O)O)cc1 (configuration not stated) as the compound, how does the Potency read?
A: inconclusive [inhibitor, partial curve]

Q: Which Potency does the source give for CN(C)c1ccc(S(=O)(=O)N2CCCCC2)cc1NC(=O)C1=NN(c2ccccc2)C(=O)CC1 here?
A: inactive

Q: For Cn1c(NC(=O)c2ccc(F)cc2)nc2ccccc21, which Potency is on record?
A: active: 1.26 µM

Q: For O=C(CSc1nc2cc(Cl)ccc2s1)c1ccco1, which Potency is on record?
A: inconclusive [activator, single point]

Q: With c1cnc(SCCOc2cccc3ccccc23)nc1 as the compound, how does the Potency read?
A: inconclusive [inhibitor, single point]

Q: For O=C(CN1CCN(Cc2ccc(Cl)cc2)C1=O)NCCCN1CCN(c2ccc(F)cc2)CC1, which Potency is on record?
A: inconclusive [inhibitor, single point]

Q: Which Potency does the source give for O=C(N/N=C/c1cccc(Oc2ccc([N+](=O)[O-])cc2[N+](=O)[O-])c1)c1cncc(Br)c1 here?
A: inconclusive [inhibitor, single point]

Q: Which Potency does the source give for Cc1nc(NC(=O)CSc2nc3ccccc3s2)sc1C(=O)N(C)C here?
A: inactive

Q: Which Potency does the source give for COc1cccc(C2SCC(=O)N2c2ccc(Br)cc2)c1OC (configuration not stated) here?
A: inconclusive [activator, single point]

Q: For CCOP(=O)(OCC)C(NC(=O)Nc1c(C)cc(C)cc1C)c1ccccc1 (configuration not stated), which Potency is on record?
A: inactive

Q: For Cc1cccc(C(=O)NC(=S)N(C)C2CCCCC2)c1, which Potency is on record?
A: active: 2.24 µM

Q: For Cc1ccc(C2C(C#N)=C(N)Oc3cc4c(cc32)OCO4)cc1 (configuration not stated), which Potency is on record?
A: inactive

Q: Which Potency does the source give for COc1ccc(Cn2c(/C=C/c3ccccc3)nc3ccccc32)cc1 here?
A: inconclusive [inhibitor, single point]

Q: With CCCN(CC(=O)Nc1cc(Cl)ccc1Cl)C(=O)CN1C(=O)C2CCCCC2C1=O (configuration not stated) as the compound, how does the Potency read?
A: inconclusive [inhibitor, partial curve]

Q: Which Potency does the source give for COc1ccccc1C(=O)Nc1ccc(Cc2ccncc2)cc1 here?
A: inconclusive [activator, single point]

Q: With Cc1cc(C(=O)Nc2nc(-c3ccccn3)cs2)ccc1[N+](=O)[O-] as the compound, how does the Potency read?
A: active: 2.82 µM

Q: Which Potency does the source give for Cc1ccsc1C1C=C(c2cccc(Br)c2)Nc2ncnn21 (configuration not stated) here?
A: inconclusive [inhibitor, single point]

Q: Which Potency does the source give for S=C(Nc1cccc2ccccc12)N1CCN(c2ncccn2)CC1 here?
A: inconclusive [inhibitor, single point]

Q: With O=C(OCC(=O)N1CCCCC1)c1cc(NS(=O)(=O)c2ccc(Cl)c([N+](=O)[O-])c2)ccc1O as the compound, how does the Potency read?
A: inconclusive [inhibitor, single point]

Q: For OCCN(Cc1ccccc1)CC(O)COc1ccc(-c2ccccc2)cc1 (configuration not stated), which Potency is on record?
A: inconclusive [inhibitor, single point]

Q: For Cc1ccc(-c2nn(-c3ccccc3)cc2CNCc2ccccc2)cc1, which Potency is on record?
A: active: 14.1 µM

Q: Which Potency does the source give for CCn1c(=O)c(C(=O)CN2CCN(S(=O)(=O)c3ccc(C)cc3C)CC2)c(N)n(Cc2ccccc2)c1=O here?
A: inconclusive [inhibitor, single point]

Q: Which Potency does the source give for O=C1NC(=Nc2ccc(Cl)cc2)SC1Cc1cccc(Cl)c1Cl (configuration not stated) here?
A: inconclusive [inhibitor, single point]

Q: With O=C(CN1C(=O)c2ccccc2S1(=O)=O)c1ccc(F)cc1 as the compound, how does the Potency read?
A: active: 5.01 µM

Q: With Oc1ccc(C[C@@H]2CNC(=S)N2CCCCC2CCCCC2)cc1 as the compound, how does the Potency read?
A: inconclusive [inhibitor, single point]

Q: For CC(C)(C)c1ccc(C(=O)N2CCCCCC2=O)cc1, which Potency is on record?
A: active: 2.24 µM

Q: With Cc1cccc(C(=O)Nc2nnc(-c3ccco3)o2)c1 as the compound, how does the Potency read?
A: active: 0.631 µM

Q: With Cc1conc1NC(c1cccs1)c1ccc2cccnc2c1O (configuration not stated) as the compound, how does the Potency read?
A: active: 5.62 µM

Q: Which Potency does the source give for O=C(NCc1cccnc1)C1c2ccccc2C(=O)N1C1CCCCCC1 (configuration not stated) here?
A: inactive

Q: Which Potency does the source give for COC(=O)CC1=NN(c2ccccc2)C(=O)/C1=C\c1ccc(OC)cc1 here?
A: inactive

Q: With COC(=O)[C@H](C)NC(=O)C/C=C\[C@@H](C)[C@@H](CO)OC as the compound, how does the activity, negative = inhibition read?
A: inactive: -13.8% [at 10 µM]

Q: With CCOCCCNC(=O)COC(=O)/C=C/c1ccc(S(=O)(=O)N2CCc3ccccc32)cc1 as the compound, how does the Potency read?
A: inactive

Q: With S=C(Nc1ccc2nsnc2c1)N1CCCCC1 as the compound, how does the Potency read?
A: inconclusive [inhibitor, single point]
